The whole screen tested about 410,000 compounds, of which about 6,400 (1.6%) were called active. Inconclusive results, whose numbers are uncertain, are shown with a selection of clear calls. Calls follow the shape of the dose curve; as a rule, active = well fitted inhibition curve with a large enough effect; inconclusive = small, poorly fitted or top-dose-only effect; inactive = no such curve, though single readings can be large or run the other way. No potency is given beside an inconclusive call; the fits are too rough.
What follows are compounds tested against Glucagon-like peptide 1 receptor (Homo sapiens) (UniProt P43220) (assay: qHTS of GLP-1 Receptor Inverse Agonists (Inhibition Mode)). Conditions: HEK293 GLP-1R CRE-luciferase, luminescence, 24 h, GLP-1R form is constitutively active; activity change, negative = inhibition: at 38.3 µM (top of the series) unless noted.
UniProt P43220, sequence (P43220 whole entry, looked up): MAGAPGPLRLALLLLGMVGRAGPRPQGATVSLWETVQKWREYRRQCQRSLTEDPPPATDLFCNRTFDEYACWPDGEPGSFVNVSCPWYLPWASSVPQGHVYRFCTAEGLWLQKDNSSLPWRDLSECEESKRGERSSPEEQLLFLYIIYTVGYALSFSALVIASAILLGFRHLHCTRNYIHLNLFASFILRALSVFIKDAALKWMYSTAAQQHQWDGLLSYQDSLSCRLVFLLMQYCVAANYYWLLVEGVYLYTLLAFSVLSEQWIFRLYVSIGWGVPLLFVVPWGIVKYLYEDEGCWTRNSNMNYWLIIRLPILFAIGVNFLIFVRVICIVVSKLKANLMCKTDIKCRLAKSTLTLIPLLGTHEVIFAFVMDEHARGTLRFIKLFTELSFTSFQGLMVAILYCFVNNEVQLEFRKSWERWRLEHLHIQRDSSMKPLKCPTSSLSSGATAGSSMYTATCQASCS
In short: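 Constitutively active GLP-1R drives a cAMP-responsive luciferase in stably transfected HEK293 cells; test compounds are added after overnight (12 h) attachment and left 24 hr, and signal loss in luminescence marks inhibition.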
For `C/C(=N\NC(=O)c1c(Cl)c(C)nn1C)c1ccc(NC(=O)COc2ccc(Cl)cc2C)cc1`, the “activity change, negative = inhibition” value was inactive: -10.8%.
In the case of `COc1ccccc1CNC(=O)c1ccc(Cn2c(SCc3ccccc3)nc3cccnc32)cc1`, the Potency is reported as inconclusive [inhibitor, single point].
With `CCOC(=O)c1c(CNCCN(CC)CC)n(C)c2cc(Br)c(OC)cc12` the Potency was inconclusive [inhibitor, partial curve, poor fit].
For `CCNC(=O)CC1C(=O)N(c2ccc(F)cc2)C(=O)N1CCOC` (centres undefined), the “activity change, negative = inhibition” value was inactive: 8.6%.
For `CC1CN(S(=O)(=O)c2cccc(-c3csc(-c4ccccc4)n3)c2)CC(C)O1` (centres undefined), the Potency was inconclusive [inhibitor, partial curve, poor fit].
For `N#Cc1ccccc1CN1C(=O)c2ccccc2Sc2ccc(C(=O)OCc3ccco3)cc21`, the Potency was inconclusive [inhibitor, partial curve, poor fit].
With `COc1cc(OC)c2c(-c3cccc(-c4ccc(C(C)=O)cc4)c3)cc(=O)oc2c1` the Potency was inconclusive [inhibitor, full curve, poor fit].
`CCNC(=S)Nc1ccc(N(c2ccccc2)C(C)C)cc1` was tested, and the Potency was inconclusive [inhibitor, single point].
In the case of `CS(=O)(=O)N(C(=O)NC(=O)NC12CC3CC(CC(C3)C1)C2)C1CCCCC1`, the Potency is reported as inconclusive [inhibitor, single point].
For `O=C(c1c[nH]c(C(=O)N2CCN(Cc3ccccc3)CC2)c1)C1CCCCC1`, the Potency was inconclusive [inhibitor, single point].
For `CC(C)C1C(=O)N(Cc2cn(CC3CCCCC3)nn2)CCS(=O)(=O)N1Cc1ccc(-c2ccc(Cl)cc2)cc1` (centres undefined), the Potency was inconclusive [inhibitor, single point].
With `CCOC(=O)c1c(C)oc2nc(C)nc(NCCCN3CCN(c4ccccc4)CC3)c12` the “activity change, negative = inhibition” value was inactive: -7.53%.
With `CC(=O)Oc1ccc2c(c1)O/C(=C\c1ccncc1)C2=O` the “activity change, negative = inhibition” value was inactive: 17.4%.
For `CC(C)CNC(=S)NC(=O)c1ccc(Cl)cc1Cl`, the Potency was inconclusive [inhibitor, partial curve, poor fit].
In the case of `CCOC(CNC(=O)c1ccc2nc(N3CCC(C)CC3)sc2c1)OCC`, the Potency is reported as inconclusive [inhibitor, single point].
`COCCN(CCOC)c1nc(-c2ccccc2)nc2ccccc12` was tested, and the Potency was inconclusive [inhibitor, partial curve, poor fit].
`CCCC[C@@H]1CNC(=S)N1CCCC` was tested, and the Potency was inconclusive [inhibitor, single point].
In the case of `Cc1ccc(NC2=C(Cl)C(=O)OC2OC(=O)c2ccco2)cc1` (centres undefined), the “activity change, negative = inhibition” value is reported as inactive: -2.67%.
`COc1cc2c(=O)n(Cc3ccccc3)c(=O)n(CC(=O)NCCc3ccccc3)c2cc1OC` was tested, and the “activity change, negative = inhibition” value was inactive: 13.3%.
`COc1ccc(Cl)c2sc(N3CCN(C(=O)c4ccco4)CC3)nc12` was tested, and the Potency was inconclusive [inhibitor, partial curve, poor fit].
For `COc1cccc(S(=O)(=O)Nc2ccc3c(c2)C(=O)N(C)C[C@H](OC)[C@H](C)CN(Cc2ccccc2F)[C@@H](C)CO3)c1`, the Potency was inconclusive [inhibitor, single point].
In the case of `Cc1c(Cl)c([N+](=O)[O-])nn1Cc1ccc(C(=O)N/N=C\c2cc(Cl)ccc2O)o1`, the Potency is reported as inconclusive [inhibitor, partial curve, poor fit].
`COc1cc([N+](=O)[O-])ccc1NC(=O)CCCOc1ccc(C)cc1` was tested, and the Potency was inconclusive [inhibitor, single point].
In the case of `Cc1ccc(CN2CCN(CC(C)C)C(CCO)C2)s1` (centres undefined), the Potency is reported as inconclusive [inhibitor, single point].
With `COC(=O)C1CCCCN1C(=O)c1ccc2oc(C(C)C)nc2c1` (centres undefined) the “activity change, negative = inhibition” value was inactive: -9.36%.
In the case of `COCCNC(=O)C(C#N)c1nc2ccccc2nc1N1CCCCCC1` (centres undefined), the Potency is reported as inconclusive [inhibitor, full curve].
In the case of `Cc1ccc(CNC(=O)Cn2cc(S(=O)(=O)Cc3ccccc3Cl)c3ccccc32)cc1`, the “activity change, negative = inhibition” value is reported as inactive: -11.6%.
`COc1ccccc1OCCSc1nc(-c2ccc(C(C)(C)C)cc2)nc2cc(=O)[nH]n12` was tested, and the Potency was inconclusive [inhibitor, partial curve, poor fit].
With `Cc1cc(C(=O)COc2ccc(-c3nnco3)cc2)c(C)n1Cc1ccccc1` the Potency was inconclusive [inhibitor, single point].
For `COc1cc(C2(c3ccc(O)c(OC)c3)C(=O)N(C)c3ccc(Br)cc32)ccc1O`, the Potency was inconclusive [inhibitor, partial curve].
`Cc1cc(C)n2nc(C(=O)OCC(=O)Nc3ccc4c(c3)OCCO4)nc2n1` was tested, and the “activity change, negative = inhibition” value was inactive: 3.45%.
With `CC(C)CN(C)C(=O)CCc1nnc(Cc2ccc(-c3ccccc3)cc2)o1` the Potency was inconclusive [inhibitor, single point].
For `CCCSc1nnc(CNS(=O)(=O)c2ccc(C)cc2)n1C`, the Potency was inconclusive [inhibitor, partial curve, poor fit].
With `O=C(Nc1cc(C(F)(F)F)ccc1N1CCCCC1)c1cccc([N+](=O)[O-])c1` the Potency was inconclusive [inhibitor, partial curve, poor fit].
With `Cc1ccc(NC(=O)C2CC2C)cc1S(=O)(=O)N1CCOCC1` (centres undefined) the Potency was inconclusive [inhibitor, partial curve].
In the case of `CC(=O)C1C(=O)C=C(c2ccco2)CC1c1ccccc1` (centres undefined), the Potency is reported as inconclusive [inhibitor, partial curve, poor fit].
For `Cn1c(CC(=O)NN)c(Sc2ccccc2)c2ccccc21`, the Potency was inconclusive [inhibitor, single point].
`COc1ccc(C2CC(c3ccc(Br)cc3)=NN2C(=O)CSC2=NCCS2)cc1` (centres undefined) was tested, and the Potency was inconclusive [inhibitor, single point].
In the case of `COc1ccccc1CNC(=O)C1CCCN(c2cnccn2)C1` (centres undefined), the “activity change, negative = inhibition” value is reported as inactive: 38%.
In the case of `COCCCN(C(=O)c1ccco1)c1nc(-c2ccc(OC)cc2)cs1`, the Potency is reported as inconclusive [inhibitor, single point].
For `COC(=O)N/N=C/c1cn(CCOc2ccccc2)c2ccccc12`, the Potency was inconclusive [inhibitor, partial curve, poor fit].
`CCOc1nc(C)ccc1-c1noc(-c2ccccc2OC)n1` was tested, and the “activity change, negative = inhibition” value was inactive: 3.96%.
For `O=C(Nc1ccc([N+](=O)[O-])cc1)NN1CCCCCC1`, the Potency was inconclusive [inhibitor, partial curve, poor fit].
For `Clc1ccc(Nc2nc(C3CC3)cs2)cc1`, the Potency was inconclusive [inhibitor, single point].
`N/C(CC(=O)Nc1ccc(F)c(Cl)c1)=N\OC(=O)c1cccs1` was tested, and the Potency was inconclusive [inhibitor, partial curve, poor fit].
With `O=C(NCCc1ccccc1Cl)C1CCC(=O)N(CCCc2ccccc2)C1` (centres undefined) the Potency was inconclusive [inhibitor, partial curve].
With `COc1ccccc1CNC(=O)c1cc2cc3ccc(Cl)cc3nc2o1` the “activity change, negative = inhibition” value was inactive: 11.5%.
For `c1csc(-c2nc(N3CCOCC3)c3ccccc3n2)c1`, the “activity change, negative = inhibition” value was inactive: -7.48%.
For `COc1ccc(-n2c(C)nc3c(cnn3-c3ccc(Cl)cc3)c2=O)cc1`, the Potency was inconclusive [inhibitor, single point].
For `CCOc1ccc(NC(=O)N(Cc2ccc(C)cc2)Cc2ccccn2)cc1`, the Potency was inconclusive [inhibitor, single point].
`CN(C)c1cccc(C(=O)NC2CCCCCC2)c1` was tested, and the Potency was inconclusive [inhibitor, single point].
In the case of `O=C(CN1CCCCC1)Nc1ccc(NC(=O)c2ccccc2Cl)cc1Cl`, the Potency is reported as inconclusive [inhibitor, partial curve, poor fit].
With `C/C(=N\NC(=O)c1nnn(-c2nonc2N)c1CN(C)c1ccccc1)c1cccc(O)c1` the Potency was inconclusive [inhibitor, partial curve, poor fit].
With `c1ccc(OCCN2CCN(C(c3ccccc3)c3ccccc3)CC2)cc1` the Potency was inconclusive [inhibitor, full curve, poor fit].
`O=C(CN1C(=O)NC2(CCCCC2)C1=O)N(Cc1ccco1)Cc1cccs1` was tested, and the Potency was inconclusive [inhibitor, single point].
For `COc1cccc(NC(=O)CN(C)C(=O)c2cccnc2Nc2cccc(C(F)(F)F)c2)c1`, the Potency was inconclusive [inhibitor, single point].
For `O=S(=O)(Nc1ccc(O)c(Sc2nc3ccccc3s2)c1)c1ccc(Cl)cc1`, the Potency was inconclusive [inhibitor, single point].
`Cc1nc(-c2ccc(S(=O)(=O)NCC3CCN(C(=O)OC(C)(C)C)CC3)s2)cs1` was tested, and the Potency was inconclusive [inhibitor, single point].
With `O=c1c2ccccc2c(-c2ccc(O)cc2)nn1-c1cccc(C(F)(F)F)c1` the Potency was inconclusive [inhibitor, partial curve].
`Fc1ccc(C2CC(c3ccco3)=NN2c2ccccc2)cc1` (centres undefined) was tested, and the Potency was active: 6.31 µM.
`Cc1cc2oc(C(=O)Nc3ccc(S(=O)(=O)N(C)Cc4ccccc4)cc3)cc(=O)c2cc1C` was tested, and the “activity change, negative = inhibition” value was inactive: -5.29%.
In the case of `C=CCOC(=O)C1=C(C)NC(=S)C(C#N)(CC=C)C1c1ccccc1Cl` (centres undefined), the Potency is reported as inconclusive [inhibitor, single point].
`COC(=O)[C@]12CCCCC=C1N(Cc1ccccc1)C(=O)[C@H](CC(=O)NCc1cccc3ccccc13)C2` was tested, and the Potency was inconclusive [inhibitor, single point].
For `CCCc1nn(C)c(C(=O)Nc2cccc(C)c2)c1Cl`, the Potency was inconclusive [inhibitor, partial curve, poor fit].

— PubChem BioAssay AID624417 (National Center for Advancing Translational Sciences (NCATS), 2012)
% is scaled to controls: 0 for no effect and ±100 for the full control effect; potency is read from the fitted curve at half-maximal effect; tags tell the direction and shape of the fitted curve.
Also: nearly all actives have a fitted effect of over 55% in size.
